According to PubChem BioAssay AID485367 (National Center for Advancing Translational Sciences (NCATS), 2010):
The campaign covered roughly 330,000 compounds. About 560 (0.17%) were called active. Inconclusive means that the source gave no clear call. Such entries were picked first, then a sample of the others. Calls come from the whole dose curve; as a rule, active = well fitted inhibition curve with a large enough effect; inconclusive = small, poorly fitted or top-dose-only effect, or effect the other way; inactive = flat fitted curve, though single readings scatter. Potencies of inconclusive entries are left out as doubtful fits.

What follows are molecules tested against ATP-dependent 6-phosphofructokinase (Trypanosoma brucei brucei) (UniProt O15648) (assay: qHTS Assay to Find Inhibitors of T. brucei phosphofructokinase). Conditions: T. brucei PFK, ADP-Glo luminescence; activity, negative = inhibition: at 57.5 µM (top of the series).
Method in brief: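 1.25 nM PFK with 0.5 mM F6P and 0.1 mM ATP in 0.1 M TEA pH 8.0, 5 mM MgCl2, incubated 45 min at room temperature; ADP measured by ADP-Glo luminescence; compounds titrated up to 57 uM.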
Note: nearly all actives have a fitted effect of over 60% in size.
Potency is the fitted concentration of half-maximal effect; tags give direction and shape of the fitted curve.
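Throughout, for activity, negative = inhibition: 0% = uninhibited 1x PFK enzyme wells and -100% = no-enzyme wells.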

UniProt O15648, sequence (O15648 whole entry, looked up): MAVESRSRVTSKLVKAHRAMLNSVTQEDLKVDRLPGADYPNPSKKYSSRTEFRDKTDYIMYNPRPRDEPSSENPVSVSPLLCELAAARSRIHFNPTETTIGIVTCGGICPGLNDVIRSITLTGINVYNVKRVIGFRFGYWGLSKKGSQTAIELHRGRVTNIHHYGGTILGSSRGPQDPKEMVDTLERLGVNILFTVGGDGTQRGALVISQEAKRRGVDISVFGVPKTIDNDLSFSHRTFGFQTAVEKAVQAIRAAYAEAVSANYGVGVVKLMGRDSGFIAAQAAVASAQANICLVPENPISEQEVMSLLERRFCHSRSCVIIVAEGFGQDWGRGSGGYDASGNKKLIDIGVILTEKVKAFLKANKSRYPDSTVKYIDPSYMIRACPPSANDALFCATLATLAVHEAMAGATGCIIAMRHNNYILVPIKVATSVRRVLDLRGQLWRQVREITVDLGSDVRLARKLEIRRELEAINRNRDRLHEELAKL

SMILES	Potency	activity, negative = inhibition
C/C(=N\N=C(N)N)c1ccc(Cl)cc1Cl	inconclusive [falling, partial curve]	
Cn1c(=O)c2sccc2n2c(CCCC(=O)NCc3cccnc3)nnc12		inactive: 1.44%
COC(=O)c1ccccc1NC(=O)COC(=O)c1ccco1	inconclusive [falling, single point]	
CC1CCN(C2=NN3C(=N)/C(=C\c4ccc(OC(=O)c5ccco5)cc4)C(=O)N=C3S2)CC1		inactive: -0.539%
COc1ccc(C(C(O)C(=O)c2c[nH]c3ccccc23)N2CCN(c3ccc(OC)cc3)CC2)cc1 (stereo not given)	inconclusive [falling, single point]	
COc1ccc(OC)c2c1C(=O)C(Cl)=C(Cl)C2=O	active: 1.2 µM	
COc1ccc(NS(=O)(=O)c2ccc(NC(=S)NC(=O)c3cccnc3)cc2)nn1	inconclusive [activator, partial curve]	
C[C@H](NC(=O)c1nc[nH]c1C(=O)NCc1ccccc1)c1ccccc1	inconclusive [falling, single point]	
CCSC1(SCC)N=C(N)C2(C#N)C(c3ccc(OC)c(OC)c3OC)C12C#N (stereo not given)		inactive: -1.93%
NC(=O)CC[C@H](NC(=O)c1ccc(F)cc1)C(=O)OCC(=O)Nc1ccc(N2CCOCC2)cc1	inconclusive [falling, single point]	
COc1ccc(OC)c(-c2c3cc(O)c(=O)cc-3oc3cc(O)c(O)cc23)c1	active: 9.53 µM	
Cc1nonc1OCCNc1ccc([N+](=O)[O-])cc1	inconclusive [falling, partial curve]	
CN(CC(=O)Nc1c(Cl)cccc1Cl)C(=O)CNC(=O)c1ccco1		inactive: 5.02%
CCN(C(=O)COC(=O)c1cccnc1)c1cccc2ccccc12		inactive: 0.159%
O=C(COC(=O)c1cccs1)c1ccc2c(c1)OCCO2	inconclusive [falling, single point]	
O=C(CCC(=O)N1CCOc2ccc(Cl)cc21)NCCN1CCOCC1	inconclusive [falling, partial curve]	
Cn1c(-n2cccc2)c(-c2c(-c3ccccc3)[nH]c3c2c(=O)[nH]c(=O)n3C)c(=O)[nH]c1=O	inconclusive [falling, partial curve]	
COc1ccc(C/C(C)=N/NC(=O)C2COc3ccccc3O2)cc1 (stereo not given)	inconclusive [falling, partial curve]	
Cc1nnsc1C(=O)NC(=O)Nc1ccc(F)c(Cl)c1	inconclusive [falling, partial curve]	
COc1ccc(-c2nnc(Nc3ccc(S(=O)(=O)Nc4nccs4)cc3)c3ccccc23)cc1	inconclusive [activator, single point]	
CCOc1cc(C(=O)OCC(=O)NCc2ccco2)cc(OCC)c1OCC	inconclusive [falling, single point]	
O=C(NC(=S)NC1CCCCCC1)c1cncc(Br)c1		inactive: -9.54%
COc1cccc(OC)c1C(=O)OCC(=O)NC1CCCCCC1	inconclusive [activator, full curve, poor fit]	
CC[C@]1(C(=O)OC)[C@H]2C(=O)N(Cc3ccccc3)C(=O)[C@H]2[C@H]2CN(C)C(=NCc3ccccc3)N21	inconclusive [falling, single point]	

SMILES	Potency	activity, negative = inhibition
COc1ccc(CNc2cccc(F)c2)cc1Br	inconclusive [falling, single point]	
COc1ccc(C(C)=O)cc1CSc1nc2ccccc2o1	inconclusive [activator, single point]	
O=[N+]([O-])c1ccc(-c2cc(-c3ccc(Cl)cc3)n[nH]2)cc1	inconclusive [falling, single point]	
Cn1nnc(NC(=S)NC(=O)c2cccc3c(Br)cccc23)n1	inconclusive [activator, partial curve]	
O=C(O)CN1C(=O)/C(=C\c2cc(Br)ccc2OCc2ccc([N+](=O)[O-])cc2)SC1=S	inconclusive [falling, single point]	
O=C(COc1ccc(-c2nnco2)cc1)Nc1ccc(F)c(Cl)c1	inconclusive [falling, partial curve]	
COc1ccc(OC)c(NC(=O)CSc2nnc(CNc3ccc(F)cc3)o2)c1	inconclusive [falling, single point]	
COc1ccccc1NC(=O)COC(=O)c1cc2c(s1)CCC2	inconclusive [falling, single point]	
O=C(NCc1ccccc1)c1nc(S(=O)(=O)Cc2ccccc2)ncc1Cl		inactive: -18.5%
CCCCN(C(=O)c1cccc(-n2cccc2)c1)c1c(N)n(Cc2ccccc2)c(=O)[nH]c1=O	inconclusive [falling, full curve, poor fit]	
CCOC(=O)N1CCC(NC(=O)CCN2C(=O)COc3ccccc32)CC1	inconclusive [falling, single point]	
Cc1ccc(NC(=O)CSc2ncc3ccccn23)cc1C	active: 9.53 µM	
O=Cc1ccccc1OCc1ccc2c(c1)OCO2	inconclusive [falling, partial curve, poor fit]	
O=C1c2cccc3cccc(c23)C(=O)N1/N=C/c1ccc(O)cc1O		inactive: 0.475%
O=c1cc(O)c2sc(Nc3ccc(F)c(Cl)c3)nc2[nH]1		inactive: 9.73%
Cc1cccn2c(=O)c(/C=C(\C#N)C(=O)NCc3ccco3)c(N3CCCCCC3)nc12		inactive: 0.516%
COc1ccccc1CNC(=O)c1cnn2c(C(F)F)cc(C)nc12	inconclusive [falling, single point]	
COc1cccc(/C=N/NC(=O)c2cc3cc([N+](=O)[O-])ccc3s2)c1O	inconclusive [falling, single point]	
CCc1nnc(NC(=O)CCC(=O)N2CCN(c3cccc(Cl)c3)CC2)s1	inconclusive [falling, single point]	
CCCCNC(=O)Cc1ccc(Br)cc1	inconclusive [falling, single point]	
CCOC(=O)NC(=O)/C(C#N)=C\Nc1sccc1C(=O)OC	inconclusive [activator, partial curve]	
c1ccc(C(CN2CCOCC2)c2ccccc2)cc1		inactive: -4.51%
COc1cc(Br)cc(CNc2ccc(F)c([N+](=O)[O-])c2)c1O	inconclusive [falling, single point]	
COc1cc(-c2nc(-c3cccc(C(F)(F)F)c3)no2)cc(OC)c1OC		inactive: -5.1%

SMILES	Potency	activity, negative = inhibition
Cc1ccc(C(NC(=O)N2CCOCC2)C(Cl)Cl)cc1F (stereo not given)		inactive: 3.21%
C=C(C)CNC(=O)CCc1nnc(C2(c3ccc(Cl)cc3)CCC2)o1		inactive: -3.08%
CS(=O)(=O)N(CC(=O)N1CCCC1)c1cc(C(F)(F)F)ccc1Cl	inconclusive [falling, single point]	
COCCOC(=O)C1=C(C)N(Cc2ccccc2)C(=O)NC1c1cccc(OC)c1OC (stereo not given)	inconclusive [falling, full curve, poor fit]	
CS(=O)(=O)c1ccccc1-c1nnc(NC(=O)c2ccc3ncsc3c2)o1	inconclusive [activator, single point]	
O=C(O)/C=C\C(=O)Nc1ccc(N2CCN(c3ccc(Cl)c(Cl)c3)CC2)cc1	inconclusive [falling, partial curve]	
O=C(C1CC(=O)N(C2CCCCC2)C1)N1CCN(c2cccc(C(F)(F)F)c2)CC1 (stereo not given)	inconclusive [falling, single point]	
Brc1ccccc1-c1nnc(CSc2nncn2-c2ccccc2)o1		inactive: 1.78%
CN(C)S(=O)(=O)c1cccc(NC(=S)N/N=C/c2ccc(O)c(O)c2O)c1	inconclusive [falling, single point]	
COc1ccc(NC(C)=O)cc1NC(=O)CSc1nc2ncccc2[nH]1		inactive: 0.921%
O=C1/C(=C/c2ccc(N3CCOCC3)o2)SC(=Nc2ccccc2)N1CCc1c[nH]c2ccccc12	inconclusive [falling, partial curve]	
COc1ccc(C2CC(=O)c3ccccc3O2)cc1 (stereo not given)		inactive: 5.02%
Cc1cccc(NCCC#N)c1	inconclusive [falling, single point]	
O=C(COc1ccc(Br)cc1)Nc1ccc(Cc2ccncc2)cc1	inconclusive [falling, partial curve]	
O=C(CN(Cc1cccs1)C(=O)CSc1nnc(COc2ccccc2)o1)NC1CCCCC1		inactive: -0.478%
Cc1nn(Cc2ccc(Cl)c(Cl)c2)c(C)c1NC(=O)c1cc(-c2ccco2)on1	active: 4.78 µM	
Cc1ccc(S(=O)(=O)N2CCCCC2)cc1C(=O)Nc1ncn[nH]1	inconclusive [falling, single point]	
S=c1[nH]nc(-c2ccncc2)n1/N=C/C=C/c1ccco1	inconclusive [falling, single point]	
Clc1ccc(CNc2ccc(CNc3ncn[nH]3)cc2)cc1	inconclusive [falling, single point]	
O=C1CCC(C(=O)OC(C(=O)Nc2ccc([N+](=O)[O-])cc2Br)c2ccccc2)=NN1 (stereo not given)	inconclusive [falling, single point]	
O=C(CCc1nc2ccccc2s1)N1CCN(S(=O)(=O)c2cccs2)CC1		inactive: -2.4%
Nc1nonc1C(=O)NCCNc1ccc([N+](=O)[O-])cc1	inconclusive [falling, single point]	
